From patent publication US20170304437A1 (ALLIGATOR BIOSCIENCE, published 2017)

B1: human CTLA4-Fc (Fitzgerald #30R-CD152) (Fc fusion)
chain: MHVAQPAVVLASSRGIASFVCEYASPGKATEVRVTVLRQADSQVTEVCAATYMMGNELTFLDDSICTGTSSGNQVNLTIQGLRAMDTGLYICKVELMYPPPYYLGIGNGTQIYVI
notes: Bought reagent; also called biotinylated-CTLA4; human CTLA-4 (Fitzgerald); not shown: Fc part of the bought fusion
B2: Bispecific polypeptide 1134/1141 (bispecific antibody)
light: not shown
heavy: EVQLLESGGGLVQPGGSLRLSCAASGFTFSSYAMSWVRQAPGKGLEWVSSIYSGGGGTSYADSVKGRFTISRDNSKNTLYLQMNSLRAEDTAVYYCARGPAYSSFFDYWGQGTLVTVSS[human IgG1 constant region not shown]

Legend:
[1] = target: Bispecific polypeptide 1140/1141; experiment: inhibition ELISA: 1140/1141 pre-incubated with titrated soluble human CTLA4-Fc, mixture added to coated human CTLA-4 (competitor)
[2] = target: T1, CD40-Fc (Ancell # 504-820) (human, UniProt P25942 partial chain); experiment: binding ELISA on coated CD40-Fc (protocol of Example 7), sample titrated, anti-human IgG Fc-HRP
T1 construct: Bought reagent; also called human CD40; not shown: Fc part of the bought fusion

[3] = target: B1; experiment: binding ELISA on coated CTLA4-Fc (protocol of Example 7), sample titrated, anti-human IgG Fc-HRP
[4] = target: T2, CD40-Fc (R&D #1493-CD) (human, UniProt P25942 partial chain); experiment: Biacore SPR, immobilised CD40-Fc (protocol of Example 7)
T2 construct: Bought reagent immobilised on the Biacore chip; also called human CD40; not shown: Fc part of the bought fusion
Procedure: CD40-Fc (R&D #1493-CD) was immobilized to the BIAcore sensorship, CMS, using conventional amine coupling. 0.5 uM Bispecific construct (957/530) was injected over immobilized CD40 for 3 minutes and the dissociation was followed for 3 minutes. 2.17 uM CTLA4-Fc (Orencia, Bristol-Mayers Squibb) was injected over the CD40-Bispecific complex for 3 minutes and the dissociation phase was followed for 3 minutes. The chip was finally regenerated using 10 mM Glycine, pH 1.7. A Biacore 3000 instrument was used according to the manufacturer's protocols.
The six different exemplary bispecific polypeptides from Example 13 were tested for their ability to bind to both CD40 and CTLA-4. This was assessed by Surface Plasmon Resonance using the same protocol as in Example 7 above.

IC50 (read off the curve) [1] [µg/mL]	EC50 (read off the curve) [2] [nM]	EC50 (read off the curve) [3] [µg/mL]	Kd [4] [nM]	koff [4] [s⁻¹]	kon [4] [M⁻¹ s⁻¹]	Binder
~1	–	–	–	–	–	B1
–	~0.9	~0.02	14.1	0.00189	134000	B2
